{
  "source": "patent US11992011B2",
  "about": "“Compounds for controlling plant pathogens” (VIB VZW, priority 2017, dated 2024)",
  "origin": "cited, not measured here",
  "test_system": "Arabidopsis thaliana seedlings",
  "conditions": "continuous exposure to 10 μM; five day old seedlings; Van de Wouwer et al., 2016; cited from earlier work",
  "data": [
    {"molecule": "O=C(O)c1ccc(I)cc1", "note": "[Formula 4-IBA, 4-iodobenzoic acid]", "values": [
      {"measurement": "increase of the number of non-lignified endodermal cells in the Casparian strip region", "result": 57, "unit": "%"}
    ]}
  ]
}
